From US20250101135A1 (Hoffmann-La Roche, published 2025)

What was measured:
[1] = molecular target: T1, human 4-1BB (CD137) on cells (human, UniProt Q07011 24-255); test: flow cytometry on activated human PBMC, 4-1BB+ CD8+ T cells
T1 construct: whole, on cells; also called 4-1BB+CD8+; 4-1BB+CD4+

[2] = molecular target: T2, human CD19 on B cell lymphoma and leukemia cell lines (human, UniProt P15391 20-556); test: flow cytometry on OCI-Ly18 cells
T2 construct: also called SU-DHL-8; Nalm6
T2 sequence: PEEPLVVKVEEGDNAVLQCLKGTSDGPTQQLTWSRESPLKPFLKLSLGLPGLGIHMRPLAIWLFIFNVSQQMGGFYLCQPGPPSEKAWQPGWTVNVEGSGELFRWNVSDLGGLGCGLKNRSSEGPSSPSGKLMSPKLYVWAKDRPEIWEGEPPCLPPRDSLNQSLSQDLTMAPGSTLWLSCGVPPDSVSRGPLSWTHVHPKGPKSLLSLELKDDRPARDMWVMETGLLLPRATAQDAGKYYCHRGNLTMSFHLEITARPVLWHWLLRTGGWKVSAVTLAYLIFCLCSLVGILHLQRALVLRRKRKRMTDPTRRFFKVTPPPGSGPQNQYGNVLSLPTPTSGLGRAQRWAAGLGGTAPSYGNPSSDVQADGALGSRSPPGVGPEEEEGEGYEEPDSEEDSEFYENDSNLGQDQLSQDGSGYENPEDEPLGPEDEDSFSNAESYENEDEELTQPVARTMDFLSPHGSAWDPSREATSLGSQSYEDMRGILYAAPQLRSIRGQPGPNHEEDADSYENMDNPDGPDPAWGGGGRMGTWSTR

[3] = molecular target: T1, human 4-1BB (CD137) on cells; test: flow cytometry on activated human PBMC, 4-1BB+ CD4+ T cells
[4] = molecular target: T3, monomeric human 4-1BB avi His (human); test: SPR Biacore T200, construct captured via anti-human Fab, 4-1BB avi His analyte, mean of two runs
T3 construct: ectodomain of human 4-1BB with avi and hexahistidine tags; also called hu4-1BB avi His; hu4-1BB

[5] = molecular target: T4, recombinant cynomolgus 4-1BB avi His (cynomolgus, UniProt O95905); test: as above
T4 construct: also called cy 4-1BB; cy4-1BB

[6] = molecular target: T2, human CD19 on B cell lymphoma and …; test: flow cytometry on Toledo cells
[7] = molecular target: T2, human CD19 on B cell lymphoma and …; test: flow cytometry on Nalm6 cells
[8] = molecular target: T2, human CD19 on B cell lymphoma and …; test: flow cytometry on SU-DHL-8 cells

EC50 [1]: 0.05 nM | EC50 [2]: 0.1 nM | EC50 [3]: 0.21 nM | Kd [4]: 350 nM | koff [4]: 0.024 s⁻¹ | kon [4]: 69000 M⁻¹ s⁻¹ | Kd [5]: 130 nM | koff [5]: 0.014 s⁻¹ | kon [5]: 110000 M⁻¹ s⁻¹ | EC50 [6]: 0.09 nM | EC50 [7]: 0.12 nM | EC50 [8]: 0.14 nM
B1: bivalent CD19(8B8-018) targeted split trimeric 4-1BB ligand (71-248) Fc (kih) fusion (construct 3.6) (Fc fusion)
heavy 1: QVQLVQSGAEVKKPGASVKVSCKASGYTFTDYIMHWVRQAPGQGLEWMGYINPYNDGSKYTEKFQGRVTMTSDTSISTAYMELSRLRSDDTAVYYCARGTYYYGSALFDYWGQGTTVTVSSASTKGPSVFPLAPSSKSTSGGTAALGCLVKDYFPEPVTVSWNSGALTSGVHTFPAVLQSSGLYSLSSVVTVPSSSLGTQTYICNVNHKPSNTKVDKKVEPKSCDKTHTCPPCPAPEAAGGPSVFLFPPKPKDTLMISRTPEVTCVVVDVSHEDPEVKFNWYVDGVEVHNAKTKPREEQYNSTYRVVSVLTVLHQDWLNGKEYKCKVSNKALGAPIEKTISKAKGQPREPQVCTLPPSRDELTKNQVSLSCAVKGFYPSDIAVEWESNGQPENNYKTTPPVLDSDGSFFLVSKLTVDKSRWQQGNVFSCSVMHEALHNHYTQKSLSLSPGGGGGSGGGGSREGPELSPDDPAGLLDLRQGMFAQLVAQNVLLIDGPLSWYSDPGLAGVSLTGGLSYKEDTKELVVAKAGVYYVFFQLELRRVVAGEGSGSVSLALHLQPLRSAAGAAALALTVDLPPASSEARNSAFGFQGRLLHLSAGQRLGVHLHTEARARHAWQLTQGATVLGLFRVTPEIPAGLGGGGSGGGGSREGPELSPDDPAGLLDLRQGMFAQLVAQNVLLIDGPLSWYSDPGLAGVSLTGGLSYKEDTKELVVAKAGVYYVFFQLELRRVVAGEGSGSVSLALHLQPLRSAAGAAALALTVDLPPASSEARNSAFGFQGRLLHLSAGQRLGVHLHTEARARHAWQLTQGATVLGLFRVTPEIPAGL
heavy 2: QVQLVQSGAEVKKPGASVKVSCKASGYTFTDYIMHWVRQAPGQGLEWMGYINPYNDGSKYTEKFQGRVTMTSDTSISTAYMELSRLRSDDTAVYYCARGTYYYGSALFDYWGQGTTVTVSSASTKGPSVFPLAPSSKSTSGGTAALGCLVKDYFPEPVTVSWNSGALTSGVHTFPAVLQSSGLYSLSSVVTVPSSSLGTQTYICNVNHKPSNTKVDKKV[no letters for human IgG1 Fc with changes]GGGGSGGGGSREGPELSPDDPAGLLDLRQGMFAQLVAQNVLLIDGPLSWYSDPGLAGVSLTGGLSYKEDTKELVVAKAGVYYVFFQLELRRVVAGEGSGSVSLALHLQPLRSAAGAAALALTVDLPPASSEARNSAFGFQGRLLHLSAGQRLGVHLHTEARARHAWQLTQGATVLGLFRVTPEIPAGL
light: DIVMTQTPLSLSVTPGQPASISCKSSQSLENPNGNTYLNWYLQKPGQSPQLLIYRVSKRFSGVPDRFSGSGSGTDFTLKISRVEAEDVGVYYCLQLTHVPYTFGQGTKLEIKRTVAAPSVFIFPPSDEQLKSGTASVVCLLNNFYPREAKVQWKVDNALQSGNSQESVTEQDSKDSTYSLSSTLTLSKADYEKHKVYACEVTHQGLSSPVTKSFNRGEC
